These are yes or no findings as the source states them, for the method shown. For some assays here: In cells and extracts the contact can be indirect. Some results given as binding are weak or reduced against the parent protein; the word gives no strength. For some assays here: Tags and fused reporters may be left off the sequences shown.

Amino acid sequences for entries named in this document (tags omitted).
UniProt P03101: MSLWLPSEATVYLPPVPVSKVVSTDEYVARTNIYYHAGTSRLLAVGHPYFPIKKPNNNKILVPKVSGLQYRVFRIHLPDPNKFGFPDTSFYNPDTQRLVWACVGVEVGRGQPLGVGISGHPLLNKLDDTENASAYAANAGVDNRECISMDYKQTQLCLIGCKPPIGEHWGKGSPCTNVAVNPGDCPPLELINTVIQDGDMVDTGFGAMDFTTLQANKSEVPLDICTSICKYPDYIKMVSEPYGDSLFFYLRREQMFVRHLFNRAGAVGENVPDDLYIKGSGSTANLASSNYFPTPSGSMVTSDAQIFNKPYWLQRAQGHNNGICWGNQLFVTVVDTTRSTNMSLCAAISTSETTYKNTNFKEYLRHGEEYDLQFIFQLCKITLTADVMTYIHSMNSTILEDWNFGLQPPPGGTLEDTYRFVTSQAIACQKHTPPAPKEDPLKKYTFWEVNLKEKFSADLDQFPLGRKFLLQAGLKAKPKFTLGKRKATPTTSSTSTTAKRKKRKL
UniProt P03107: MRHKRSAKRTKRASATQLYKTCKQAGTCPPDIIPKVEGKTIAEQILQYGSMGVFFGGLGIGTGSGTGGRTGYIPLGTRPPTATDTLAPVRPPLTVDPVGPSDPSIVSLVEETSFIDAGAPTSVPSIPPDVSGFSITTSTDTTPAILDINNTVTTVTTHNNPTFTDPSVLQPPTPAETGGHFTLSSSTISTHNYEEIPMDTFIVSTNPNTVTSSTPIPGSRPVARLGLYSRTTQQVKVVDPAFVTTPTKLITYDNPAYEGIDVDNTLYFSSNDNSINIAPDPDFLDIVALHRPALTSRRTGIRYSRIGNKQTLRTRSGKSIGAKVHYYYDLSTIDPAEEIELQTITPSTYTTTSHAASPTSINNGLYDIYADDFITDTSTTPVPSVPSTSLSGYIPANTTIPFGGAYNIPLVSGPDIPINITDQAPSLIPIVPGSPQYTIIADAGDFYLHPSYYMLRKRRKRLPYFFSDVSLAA
UniProt O14964: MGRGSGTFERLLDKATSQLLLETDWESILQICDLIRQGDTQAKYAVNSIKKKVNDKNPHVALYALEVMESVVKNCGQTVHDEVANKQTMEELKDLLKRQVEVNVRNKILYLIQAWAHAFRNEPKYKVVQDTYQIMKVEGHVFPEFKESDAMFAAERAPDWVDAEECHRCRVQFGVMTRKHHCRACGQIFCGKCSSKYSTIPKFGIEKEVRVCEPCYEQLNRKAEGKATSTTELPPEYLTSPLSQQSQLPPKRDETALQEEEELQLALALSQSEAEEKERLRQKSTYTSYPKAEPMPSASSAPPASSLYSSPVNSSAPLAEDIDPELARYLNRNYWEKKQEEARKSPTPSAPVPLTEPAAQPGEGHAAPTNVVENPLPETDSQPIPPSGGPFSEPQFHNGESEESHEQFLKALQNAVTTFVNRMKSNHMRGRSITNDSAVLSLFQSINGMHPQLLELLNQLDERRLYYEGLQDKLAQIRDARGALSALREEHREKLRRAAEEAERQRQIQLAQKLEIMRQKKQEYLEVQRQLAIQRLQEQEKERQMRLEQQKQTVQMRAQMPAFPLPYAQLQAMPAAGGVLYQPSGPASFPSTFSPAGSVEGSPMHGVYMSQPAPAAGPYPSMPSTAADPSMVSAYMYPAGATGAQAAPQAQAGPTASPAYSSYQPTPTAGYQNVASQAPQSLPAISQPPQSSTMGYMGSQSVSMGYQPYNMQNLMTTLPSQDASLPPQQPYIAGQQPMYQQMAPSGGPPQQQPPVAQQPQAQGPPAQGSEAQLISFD

Assay [1] addresses HPV-16 L1 GST fusion protein (Human papillomavirus type 16 (HPV-16)) (UniProt P03101). Briefly: pull-down; purified GST fusion proteins incubated with clarified RIPA extracts of transfected HEK293 cells, 2 h at room temperature; extensive washing; western blotting; only the target purified. (A western blot detects proteins with antibodies after separation by electrophoresis.)
For assay [2], the target named is HPV-16 L2 GST fusion protein (Human papillomavirus type 16 (HPV-16)) (UniProt P03107). The assay is described as above.
The target in assay [3] is T1, endogenous VPS4B (human (endogenous in HaCaT)) (UniProt O75351).
T1 sequence: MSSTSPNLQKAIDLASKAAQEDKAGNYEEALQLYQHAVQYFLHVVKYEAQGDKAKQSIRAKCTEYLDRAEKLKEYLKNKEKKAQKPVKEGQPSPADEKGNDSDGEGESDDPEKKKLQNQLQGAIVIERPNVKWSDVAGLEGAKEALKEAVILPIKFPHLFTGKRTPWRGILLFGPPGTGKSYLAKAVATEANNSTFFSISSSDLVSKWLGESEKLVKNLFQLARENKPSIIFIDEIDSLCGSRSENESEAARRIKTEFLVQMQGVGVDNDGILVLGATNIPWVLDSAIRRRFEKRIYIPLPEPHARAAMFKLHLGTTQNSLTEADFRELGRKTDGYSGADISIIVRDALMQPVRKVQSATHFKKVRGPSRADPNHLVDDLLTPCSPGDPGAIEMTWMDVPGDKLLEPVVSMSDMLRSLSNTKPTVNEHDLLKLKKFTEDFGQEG
The assay can be described thus: co-IP; HaCaT cells infected with HPV-16 PsVs (1 h at 4 °C, then 37 °C), harvested in RIPA 3 h and 6 h post-infection; anti-VPS4B overnight at 4 °C, protein A sepharose; blots for L1 and L2.

In assay [4] the target is T1, endogenous VPS4B (human (endogenous in HaCaT)). Briefly: co-IP; as a4, cells harvested 9 h post-infection.
The target in assay [5] is HPV-16 L1 GST fusion protein (Human papillomavirus type 16 (HPV-16)) (UniProt P03101). The assay can be described thus: pull-down; purified His-tagged VPS4B proteins added to GST fusion proteins bound to glutathione agarose beads, 2 h at room temperature; washed with PBS containing 1% Triton X-100; western blotting; both purified.
The target of assay [6] is HPV-16 L2 GST fusion protein (Human papillomavirus type 16 (HPV-16)) (UniProt P03107). Described as above.
For assay [7], the target named is HPV-16 L1 GST fusion protein (Human papillomavirus type 16 (HPV-16)) (UniProt P03101). Briefly: pull-down; as a1 with VPS4B-DsRed extract, beads washed with increasing concentrations of Triton X-100 (up to 2%) in PBS; western blotting with anti-VPS4B; only the target purified.
For assay [8] the target is unchanged. The assay can be described thus: pull-down; purified His-tagged VPS4B proteins added to GST fusion proteins bound to glutathione agarose beads, 2 h at room temperature; washed with PBS containing 1% Triton X-100; western blotting; both purified. The source holds these as a separate data set.

In the case of “GFP tagged HRS (from UniProt O14964 1-777)”, the binding result in assay [1] and in assay [2] was “no binding” throughout.

As for “HPV-16 L1 of HPV-16 pseudovirions (from UniProt P03101 1-505)”, the values for the binding entry in assay [3] and in assay [4] were “binds” and “no binding (condition: at 9 h post-infection)”, respectively.

Take “mutant His-VPS4B 95-444 E235Q (from UniProt O75351 95-444) (domain or fragment)”: the binding entry in assay [5] and in assay [6] was “no binding” throughout.

B1: DsRed tagged VPS4B (protein, UniProt O75351 1-444)
chain: T1 sequence
As for B1, the binding entry in assay [1] and in assay [7] was “binds” in each case.

B2: His-tagged wild type VPS4B (protein, UniProt O75351 1-444)
chain: T1 sequence
As to B2, in assay [8], the binding result is “binds weakly”.

B3: GFP tagged VPS4A (protein, UniProt Q9UN37 1-437)
chain: MTTSTLQKAIDLVTKATEEDKAKNYEEALRLYQHAVEYFLHAIKYEAHSDKAKESIRAKCVQYLDRAEKLKDYLRSKEKHGKKPVKENQSEGKGSDSDSEGDNPEKKKLQEQLMGAVVMEKPNIRWNDVAGLEGAKEALKEAVILPIKFPHLFTGKRTPWRGILLFGPPGTGKSYLAKAVATEANNSTFFSVSSSDLMSKWLGESEKLVKNLFELARQHKPSIIFIDEVDSLCGSRNENESEAARRIKTEFLVQMQGVGNNNDGTLVLGATNIPWVLDSAIRRRFEKRIYIPLPEEAARAQMFRLHLGSTPHNLTDANIHELARKTEGYSGADISIIVRDSLMQPVRKVQSATHFKKVCGPSRTNPSMMIDDLLTPCSPGDPGAMEMTWMDVPGDKLLEPVVCMSDMLRSLATTRPTVNADDLLKVKKFSEDFGQES
Take B3: the binding result in assay [1] and in assay [2] was “binds” throughout.

The values above are taken from publication PMC5368633.
